The source gives no read counts; variants with many changes may rest on few reads.
B1: CPEB3 Ribozyme (parent)
chain: UAACAGGGGGCCACAGCAGAAGCGUUCACGUCGCAGCCCCUGUCAGAUUCUGGUGAAUCUGCGAAUUCUGCUGUAUAUCUC

Variants of: B1
Test: self-cleavage, relative activity (ratio to wild type); higher = more cleavage; in vitro, sequencing
In short: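 Relative activity compares each variant's cleaved/total read fraction with that of the unmutated ribozyme. To get these fractions, barcoded CPEB3 ribozyme libraries from rounds of error-prone PCR were transcribed with T7 RNA polymerase for 5 hours at 37°C and then given 15 min of DNase I treatment before EDTA was added. The RNAs were reverse transcribed with template switching and sequenced on Illumina, and DNA sequencing linked barcodes to variants. A minimum of 5 reads applied, and three batches were averaged.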
Variant A3C U26C U43C G46U has a self-cleavage of 0.16.
For A3C U26C U49G C62U U72A U80C, the self-cleavage was 0.06.
In the case of A3C U41A A47G G52A U60C, the self-cleavage is reported as 0.1.
A3C U41C U43A U49C gave a self-cleavage of 0.44.
Work on A3C U43C U76A yielded a self-cleavage of 0.71.
For A3C U51A U60A U78C, the self-cleavage was 0.66.
A3C U60C A64G gave a self-cleavage of 0.68.
For A3G A5C C14U U48C U51C A56U A77G, the self-cleavage was 0.23.
A3G A5C U60C showed a self-cleavage of 0.35.
With A3G A5G A13U A28U U54C the self-cleavage was 0.68.
Variant A3G A5G A15G A45G A57G has a self-cleavage of 0.15.
Work on A3G A5G A18G U54C yielded a self-cleavage of 0.31.
Work on A3G A5G A20G A35C U69C yielded a self-cleavage of 0.43.
A3G A5G A21G U25A U41A U49C U78A gave a self-cleavage of 0.12.
A3G A5G A21U U31C A57G showed a self-cleavage of 0.1.
A3G A5G A28G A56U U80C showed a self-cleavage of 0.06.
A3G A5G A35G A47U U49C A64U showed a self-cleavage of 0.19.
Work on A3G A5G A47G yielded a self-cleavage of 0.42.
A3G A5G A57U gave a self-cleavage of 0.62.
In the case of A3G A5G C11G U72A, the self-cleavage is reported as 0.44.
With A3G A5G C32G U43A A56G the self-cleavage was 0.07.
In the case of A3G A5G G9A A13U U41C U80C, the self-cleavage is reported as 0.88.
In the case of A3G A5G U25C A28G U41C U80C, the self-cleavage is reported as 0.57.
A3G A5G U25C U66G showed a self-cleavage of 0.19.
In the case of A3G A5G U25C U72A, the self-cleavage is reported as 0.19.
Variant A3G A5G U26C C50A U67A U72C has a self-cleavage of 0.16.
For A3G A5G U26C U66C, the self-cleavage was 0.12.
Variant A3G A5G U31C C44U A56U has a self-cleavage of 0.03.
Work on A3G A5G U43C U51G G52A U58A yielded a self-cleavage of 0.15.
A3G A5G U49C U51A A77G U78A showed a self-cleavage of 0.14.
Variant A3G A5G U54C C59U A64G has a self-cleavage of 0.07.
For A3G A5G U66C, the self-cleavage was 0.44.
A3G A5U A15G U25C U72C U74C A75G showed a self-cleavage of 0.04.
Work on A3G A5U A18G U72C U80C yielded a self-cleavage of 1.02.
A3G A5U A35G gave a self-cleavage of 1.18.
A3G A5U A35U U69C showed a self-cleavage of 0.27.
With A3G A5U C17G A56G U67C U76C the self-cleavage was 0.14.
Variant A3G A5U C23U A35G A57G C59A has a self-cleavage of 0.14.
For A3G A5U G9U U69A C81G, the self-cleavage was 0.48.
For A3G A5U U31C A65U A75U, the self-cleavage was 0.29.
With A3G A5U U31C U49C U60C G70U the self-cleavage was 0.11.
With A3G A5U U31C U67C the self-cleavage was 0.21.
In the case of A3G A13C A64G A75G, the self-cleavage is reported as 0.97.
A3G A13G A15G gave a self-cleavage of 0.7.
For A3G A13G A15U U41A U49C A64U U66C, the self-cleavage was 0.38.
For A3G A13G A18U G33A U78C, the self-cleavage was 0.34.
A3G A13G A20G U51C U60A gave a self-cleavage of 0.51.
With A3G A13G A21C A28U A45U the self-cleavage was 0.31.
Variant A3G A13G A21C G46U U80G has a self-cleavage of 0.44.
Variant A3G A13G A21C U26A G46A has a self-cleavage of 0.09.
In the case of A3G A13G A21G A35G C40A U67C, the self-cleavage is reported as 0.18.
With A3G A13G A21G U26C C29U U72C the self-cleavage was 0.05.
Variant A3G A13G A35U has a self-cleavage of 0.42.
A3G A13G A35U A47G U69C gave a self-cleavage of 0.47.
Variant A3G A13G A35U C44U has a self-cleavage of 0.13.
Variant A3G A13G A35U U48C U54G A65G has a self-cleavage of 0.14.
With A3G A13G A77G the self-cleavage was 0.85.
For A3G A13G C14A A35U U60C U66A, the self-cleavage was 0.11.
Variant A3G A13G C50U U67C U78C C79U has a self-cleavage of 0.14.
In the case of A3G A13G G19C A28G C29U C38U C40A, the self-cleavage is reported as 0.07.
For A3G A13G G19U A35G A75G, the self-cleavage was 0.09.
A3G A13G G30A U49C U80C gave a self-cleavage of 0.13.
With A3G A13G U25A C40A U49C A56U U80G the self-cleavage was 0.12.
A3G A13G U25A G33U U69C U72C showed a self-cleavage of 0.26.
For A3G A13G U25C C38G U66G, the self-cleavage was 0.31.
For A3G A13G U26A A65G, the self-cleavage was 0.48.
Work on A3G A13G U31C U51G yielded a self-cleavage of 0.68.
In the case of A3G A13G U48A G63A U78C, the self-cleavage is reported as 0.18.
In the case of A3G A13G U51C, the self-cleavage is reported as 0.84.
In the case of A3G A13U A18U U54G G61C U76A, the self-cleavage is reported as 0.23.
A3G A13U A21G A64G U69C showed a self-cleavage of 0.18.
For A3G A13U A28U A35G A65C A77G, the self-cleavage was 0.23.
A3G A13U A35U showed a self-cleavage of 0.24.
In the case of A3G A13U A35U A77G, the self-cleavage is reported as 0.84.
Variant A3G A13U C40U U66C U69C has a self-cleavage of 0.31.
Variant A3G A13U C50A has a self-cleavage of 0.65.
For A3G A13U C62U, the self-cleavage was 0.37.
Work on A3G A13U G16U U49C C62G U78C yielded a self-cleavage of 0.08.
In the case of A3G A13U G22A, the self-cleavage is reported as 0.41.
In the case of A3G A13U G22C A35G U43C A75G, the self-cleavage is reported as 0.08.
For A3G A13U G24A U25C A65C, the self-cleavage was 0.09.
Variant A3G A13U U25C U58C has a self-cleavage of 0.34.
A3G A13U U69C showed a self-cleavage of 0.6.
In the case of A3G A15G A18G, the self-cleavage is reported as 0.64.
With A3G A15G A20U A35G U74A the self-cleavage was 0.79.
A3G A15G A21G U49C G53C A77G gave a self-cleavage of 0.15.
A3G A15G A21G U58A showed a self-cleavage of 0.15.
With A3G A15G A28G U31A A65G U72A U80A the self-cleavage was 0.1.
With A3G A15G A35U G52C U72A the self-cleavage was 0.33.
A3G A15G A47U A64G showed a self-cleavage of 0.39.
A3G A15G A56U showed a self-cleavage of 0.57.
A3G A15G C32G U67A showed a self-cleavage of 0.1.
A3G A15G G19U U26C U43C showed a self-cleavage of 0.25.
In the case of A3G A15G G24C U74A, the self-cleavage is reported as 0.14.
Work on A3G A15G G30U C50A A57C yielded a self-cleavage of 0.15.
With A3G A15G U25C U48C U66C the self-cleavage was 0.13.
For A3G A15G U31C U51C U54C U67C, the self-cleavage was 0.62.
A3G A15G U31C U69C A77G gave a self-cleavage of 0.22.
With A3G A15G U49C A64U the self-cleavage was 0.64.
Work on A3G A15U A18U C34G A45U U60C yielded a self-cleavage of 0.06.
Variant A3G A15U A20G U26A G33A U54C U69A has a self-cleavage of 0.17.
Work on A3G A15U A21G U26C C37U U54C yielded a self-cleavage of 0.13.
For A3G A15U A28U C81U, the self-cleavage was 1.24.
A3G A15U U25A A56G U67C U78C showed a self-cleavage of 0.06.
Variant A3G A15U U26C A57G has a self-cleavage of 0.21.
In the case of A3G A15U U41A U49A, the self-cleavage is reported as 0.39.
For A3G A15U U43C A56G U60C, the self-cleavage was 0.18.
A3G A15U U43C C62U U72C A75G showed a self-cleavage of 0.07.
In the case of A3G A18C A65G U67C, the self-cleavage is reported as 0.38.
Variant A3G A18C U60C U72C has a self-cleavage of 0.34.
A3G A18G A20G U60A gave a self-cleavage of 0.46.
Work on A3G A18G A35G yielded a self-cleavage of 1.1.
With A3G A18G A35G A64G U69C the self-cleavage was 1.26.
In the case of A3G A18G A45U U80C, the self-cleavage is reported as 0.32.
In the case of A3G A18G G30U U51A A75U, the self-cleavage is reported as 0.17.
A3G A18G U25A showed a self-cleavage of 0.13.
With A3G A18G U25C U43C A56U the self-cleavage was 0.06.
With A3G A18G U26C A47G U66A A75U the self-cleavage was 0.26.
In the case of A3G A18G U31C, the self-cleavage is reported as 0.55.
Work on A3G A18G U43C U49C U66G yielded a self-cleavage of 0.22.
Work on A3G A18G U43C U54A U58C C59A yielded a self-cleavage of 0.13.
Work on A3G A18G U43C U74A U78C yielded a self-cleavage of 0.72.
Variant A3G A18G U48C U66A has a self-cleavage of 0.17.
A3G A18G U51C U67A showed a self-cleavage of 0.38.
A3G A18G U60C showed a self-cleavage of 0.32.
With A3G A18U A20G G24C U80C the self-cleavage was 0.17.
A3G A18U A21U G42A G61A showed a self-cleavage of 0.06.
A3G A18U A35G A45U gave a self-cleavage of 0.3.
A3G A18U A35G A47U showed a self-cleavage of 0.14.
Work on A3G A18U A45G U51G G52U A57G yielded a self-cleavage of 0.08.
Variant A3G A18U U26C U66C has a self-cleavage of 0.57.
For A3G A18U U31A A75U, the self-cleavage was 0.53.
A3G A20C U54C showed a self-cleavage of 0.15.
A3G A20G A47G A56G U66A U69A showed a self-cleavage of 0.2.
Variant A3G A20G A77G has a self-cleavage of 0.87.
In the case of A3G A20G U25C U31C U49A U66C, the self-cleavage is reported as 0.04.
For A3G A20G U25C U72C, the self-cleavage was 0.11.
A3G A20G U31A U43G U78A gave a self-cleavage of 0.53.
A3G A20G U41C U43C U48C A65U gave a self-cleavage of 0.
A3G A20G U41G U58A showed a self-cleavage of 0.38.
Work on A3G A20G U49C G70A U74G yielded a self-cleavage of 0.1.
For A3G A20G U72C, the self-cleavage was 1.
A3G A20U A77G U80A showed a self-cleavage of 0.54.
Variant A3G A20U U31C U43A U51A U66A has a self-cleavage of 0.18.
For A3G A20U U41A A45U U54G C62G, the self-cleavage was 0.04.
Work on A3G A20U U43C U60C yielded a self-cleavage of 0.09.
For A3G A20U U66C, the self-cleavage was 0.34.
A3G A21C C23U gave a self-cleavage of 0.34.
In the case of A3G A21G A28C A47G A57U U80A, the self-cleavage is reported as 0.13.
For A3G A21G A35U U49A U76C, the self-cleavage was 0.15.
Work on A3G A21G G33A yielded a self-cleavage of 0.13.
A3G A21G G73A U76A gave a self-cleavage of 1.04.
A3G A21G U26A C40G A57G A77G gave a self-cleavage of 0.33.
For A3G A21G U31C, the self-cleavage was 0.26.
For A3G A21G U41A U60C, the self-cleavage was 0.38.
For A3G A21G U43C U49A U54C A57G, the self-cleavage was 0.47.
For A3G A21G U72C, the self-cleavage was 0.88.
In the case of A3G A21G U76C, the self-cleavage is reported as 0.83.
Variant A3G A21G U80A has a self-cleavage of 0.9.
A3G A21U A28G U72A showed a self-cleavage of 0.09.
A3G A21U A45G U72C U78A gave a self-cleavage of 0.39.
Variant A3G A21U C23U U31A C32U A57G U60C has a self-cleavage of 0.16.
For A3G A21U C29U A35U U58A U80C, the self-cleavage was 0.07.
Variant A3G A21U U43G has a self-cleavage of 0.39.
A3G A21U U49A gave a self-cleavage of 0.58.
For A3G A28C U41C U66A, the self-cleavage was 0.19.
For A3G A28G A35G A75G, the self-cleavage was 1.29.

From the RNAGym collection of RNA variant scans (doi:10.1093/nar/gkz1192)
